Out of some 220,000 compounds screened, about 16,000 (7.3%) were called active. This list was built around the results that the source calls inconclusive (neither active nor inactive); the mix of calls is not that of the screen. The call rests on the fitted dose curve; in most records, active means well fitted inhibition curve with a large enough effect (not every such curve was filed as active); inconclusive means small, poorly fitted or top-dose-only effect, or another doubt; inactive means no such curve, though single readings can be large or run the other way. Potencies of inconclusive entries are left out as doubtful fits.
The compounds below were run against Aldehyde dehydrogenase 1A1 (Homo sapiens) (UniProt P00352) (assay: qHTS Assay for Inhibitors of Aldehyde Dehydrogenase 1 (ALDH1A1)). Conditions: Purified ALDH1A1, NADH fluorescence, propionaldehyde substrate; series mostly up to 75.3 µM.
UniProt P00352, sequence (P00352 whole entry, looked up): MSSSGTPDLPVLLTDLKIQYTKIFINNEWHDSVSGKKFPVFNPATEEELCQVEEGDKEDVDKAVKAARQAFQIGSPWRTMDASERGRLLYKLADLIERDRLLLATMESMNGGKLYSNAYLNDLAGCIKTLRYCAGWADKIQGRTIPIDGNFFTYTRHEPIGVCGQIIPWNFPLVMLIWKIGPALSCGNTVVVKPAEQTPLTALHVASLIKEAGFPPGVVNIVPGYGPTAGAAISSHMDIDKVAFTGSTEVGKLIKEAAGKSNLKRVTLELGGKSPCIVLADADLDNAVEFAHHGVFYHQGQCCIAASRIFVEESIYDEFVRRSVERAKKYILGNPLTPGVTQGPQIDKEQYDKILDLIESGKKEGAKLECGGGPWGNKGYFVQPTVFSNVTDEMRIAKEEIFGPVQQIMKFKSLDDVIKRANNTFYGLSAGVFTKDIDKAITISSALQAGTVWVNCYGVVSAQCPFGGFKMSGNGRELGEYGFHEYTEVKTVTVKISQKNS
With `O=S(=O)(Nc1nc2ccccc2nc1Cl)c1ccc2ccccc2c1` the Potency was inconclusive [inhibitor, partial curve].
For `O=c1cc(-c2cccc(F)c2)[nH]c2ccc(Cl)cc12`, the Potency was inconclusive [inhibitor, single point].
With `COc1cc2c(cc1OC)-c1cc(N3CCCCCC3)nc(=O)n1CC2` the Potency was inconclusive [inhibitor, partial curve].
`Cn1c(=O)[nH]c(=O)c2c1nc(SCCN1CCOCC1)n2Cc1ccccc1` was tested, and the Potency was “inactive”.
In the case of `CN(C)c1ccc(/C=N/NC(=O)c2cc(=O)[nH]c3ccccc23)cc1`, the Potency was inconclusive [inhibitor, single point].
For `COc1ccc(C(=O)Oc2ccc3oc(=O)sc3c2)cc1`, the Potency was inconclusive [inhibitor, partial curve].
`CCCc1c(C(=O)NNc2ccc(C)cc2)cnn1-c1ccccc1` was tested, and the Potency was active: 14.1 µM.
For `CCCOc1ccc(N2C(=O)CC(N(CCc3ccc(OC)cc3)C(=O)/C=C/C(=O)O)C2=O)cc1` (centres undefined), the Potency was inconclusive [inhibitor, single point].
In the case of `CCCn1nc(NC(=O)CC(C)C)c2cc3ccccc3nc21`, the Potency was inconclusive [inhibitor, single point].
With `CCn1c(SCC(=O)C(C)(C)C)nnc1-c1cnccn1` the Potency was inconclusive [inhibitor, partial curve].
For `N#Cc1nc(COc2ccccc2)oc1N1CCN(Cc2ccccc2)CC1`, the Potency was inconclusive [inhibitor, partial curve].
With `COc1ccc2[nH]c(=O)c(COC(=O)c3cccs3)cc2c1` the Potency was inconclusive [inhibitor, single point].
For `O=C(CN(c1ccccc1F)S(=O)(=O)c1ccccc1)N1CCCCCC1`, the Potency was active: 28.2 µM.
With `Cn1c(=O)c(C(=O)COC(=O)c2cc(C(F)(F)F)nc3c(C(F)(F)F)cccc23)c(N)n(CC2CC2)c1=O` the Potency was “inactive”.
In the case of `[2H]c1c([2H])c([2H])c(-c2nc(N3CCCCCC3)sc2C(=O)c2ccccc2)c([2H])c1[2H]`, the Potency was inconclusive [inhibitor, single point].
With `Cc1ccc(C(=O)Nc2nc3ccc(S(C)(=O)=O)cc3s2)o1` the Potency was inconclusive [inhibitor, single point].
In the case of `CCOC(=O)CC1ON(C)C(=O)N1c1ccc(Cl)cc1Cl` (centres undefined), the Potency was inconclusive [inhibitor, partial curve].
With `O=C(CCSc1nc(-c2ccco2)cc(C(F)(F)F)n1)NCc1ccccn1` the Potency was inconclusive [inhibitor, single point].
For `CC[n+]1c(/C=C/C=C/N(C(C)=O)c2ccccc2)sc2ccccc21`, the Potency was active: 3.55 µM.
With `O=C1C(SCCO)=C(SCCO)C(=O)c2ccccc21` the Potency was active: 17.8 µM.
For `CC(C)(C)c1ccc(-c2nc(C#N)c(NCc3ccncc3)o2)cc1`, the Potency was inconclusive [inhibitor, partial curve].
`COc1cc(CC(=O)Nc2ccc3nc(C)sc3c2)cc(OC)c1OC` was tested, and the Potency was inconclusive [inhibitor, single point].
With `CCCCCCCC/C=C\CCCCCCCC(=O)OCC(CO)OC(=O)CCCCCCC/C=C\CCCCCCCC` (centres undefined) the Potency was “inactive”.
With `COc1ccc(Oc2ncc3nc(-c4ccc(F)cc4)c(=O)n(Cc4cccs4)c3n2)cc1` the Potency was inconclusive [inhibitor, single point].
In the case of `Cc1c(Cl)ccc2c(C(=O)NC(C)c3ccncc3)cc(-c3ccncc3)nc12` (centres undefined), the Potency was active: 1.12 µM.
In the case of `O=c1[nH]c2cc3c(cc2cc1CN(Cc1ccco1)C(=S)NCCCN1CCOCC1)OCCO3`, the Potency was inconclusive [inhibitor, single point].
In the case of `Nc1ccc2nc(-c3cccs3)[nH]c2c1`, the Potency was inconclusive [inhibitor, partial curve].
With `Cc1cccc2cc(C#N)c(N3CCN(C)CC3)nc12` the Potency was inconclusive [inhibitor, partial curve].
In the case of `O=c1cccccc1NCc1ccccc1`, the Potency was “inactive”.
`O=C(NCc1ccc2c(c1)CCO2)Nc1cccc(C(F)(F)F)c1` was tested, and the Potency was “inactive”.
With `O=C(CNC(=S)N(Cc1ccccc1)Cc1ccccc1F)NCc1ccc(Cl)cc1` the Potency was inconclusive [inhibitor, single point].
For `O=C(NCc1ccncc1)Nc1ccc(F)cc1`, the Potency was “inactive”.
With `CCOC(=O)Nc1ccc(OCc2nnc3c4ccccc4c(C)nn23)cc1` the Potency was “inactive”.
With `Cc1cc(C)c2c(N)c(C(=O)N3CCN(c4ncccn4)CC3)sc2n1` the Potency was inconclusive [inhibitor, partial curve].
`C#CCn1c(=NC(=O)c2sc3ccccc3c2Cl)sc2cc(S(N)(=O)=O)ccc21` was tested, and the Potency was inconclusive [inhibitor, single point].
With `O=C(c1ccccc1OCc1ccccc1Br)N1CCN(c2ncccn2)CC1` the Potency was inconclusive [inhibitor, partial curve].
For `Cn1cc(C(=O)Nc2ccc3c(c2)CCC3)cn1`, the Potency was inconclusive [inhibitor, single point].
For `Cc1ccc(C2Nc3ccccc3-c3nc4ccccc4n32)o1` (centres undefined), the Potency was inconclusive [inhibitor, partial curve].
`COc1ccc(S(=O)(=O)N2CCCCC2)cc1NC(=O)c1cc(C)on1` was tested, and the Potency was inconclusive [inhibitor, single point].
`O=C(NCCCNc1ccc(C(F)(F)F)cc1[N+](=O)[O-])c1ccc(Cl)cc1` was tested, and the Potency was “inactive”.
In the case of `Cc1cccc2cc(C#N)c(NCCNC(=S)NCCCN3CCOCC3)nc12`, the Potency was inconclusive [inhibitor, partial curve].
In the case of `COc1ccc(Cn2cnc3c(N)c(C)c(C)cc32)cc1`, the Potency was “inactive”.
In the case of `COc1ccc(-c2nnc(SC(C(=O)c3c[nH]c4ccccc34)c3ccccc3)n2N)cc1OC` (centres undefined), the Potency was inconclusive [inhibitor, single point].
`CCOC(=O)c1nn(-c2ccc(Cl)cc2)c2nnc(Cc3ccc(C)cc3)c(=O)n12` was tested, and the Potency was inconclusive [inhibitor, partial curve].

From PubChem BioAssay AID1030 (National Center for Advancing Translational Sciences (NCATS), 2008)
Potency means the concentration at half of the fitted maximal effect; tags describe the fitted curve by direction and shape.
